# In all, about 210,000 compounds went through this assay and about 5,900 (2.8%) were called active. The inconclusive results got no clear call from the source; some entries with a clear call stand among them for comparison. The call rests on the fitted dose curve; in most records, active means well fitted activation curve with a large enough effect; inconclusive means small, poorly fitted or top-dose-only effect; inactive means no such curve, though single readings can be large or run the other way. Where the call is inconclusive, the potency comes from a doubtful curve fit.
# Test: qHTS Assay for Enhancers of SMN2 Splice Variant Expression; further: nearly all actives have a fitted effect of over 55% in size
# Conditions: HEK293 SMN2-luciferase splicing reporter, luminescence, 30-36 h; series mostly up to 46.1 µM
# In short: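 qHTS luciferase splicing reporter: luminescence rises when SMN2 exon 7 is included in transfected HEK293 cells. Compound exposure lasted 30-36 h at 37C, with 4.5 mM final sodium butyrate as control, followed by a ONE-Glo read.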
# Potency means the concentration at half of the fitted maximal effect; tags describe the fitted curve by direction and shape.
row,SMILES,Potency
1,CC(=O)N1CCC2(CCCN(c3ccc(-c4ccccc4)cc3)C2)CC1,inactive
2,COC(=O)c1[nH]c2ccc(Br)cc2c1NC(=O)Oc1ccccc1,"inconclusive: 2.51 µM [activator, full curve, poor fit]"
3,OC(COc1ccc2ccccc2c1Cl)CN1CCOCC1 (stereo not given),"inconclusive: 8.91 µM [activator, partial curve]"
4,CCOc1cc(C(=O)Nc2cccc3cccnc23)cc(OCC)c1OCC,"inconclusive: 35.5 µM [activator, single point]"
5,Cc1ccc(Sc2ncccc2COC(=O)NC(C)C)cc1,"inconclusive: 22.4 µM [activator, partial curve]"
6,Cc1ccc(Cl)cc1N1CCN(C(=O)c2ccc3c(c2)CCN3S(=O)(=O)c2ccccc2)CC1,inactive
7,Nc1ccc(N=Nc2ccccc2)c(N)n1,"inconclusive: 31.6 µM [activator, single point]"
8,COc1ccc(-c2nc(-c3ccc(Br)cc3)no2)c(OC)c1,active: 7.08 µM
9,O=[N+]([O-])c1ccc(Cl)c(CN2CCSCC2)c1,"inconclusive: 0.0891 µM [activator, full curve, poor fit]"
10,COc1ccc(-n2nc(C(=O)Nc3ccc(Cl)cn3)c3c4ccccc4n(C)c3c2=O)cc1,inactive
11,Cc1ccccc1OCCCn1c(=O)sc2ccccc21,active: 17.8 µM
12,O=C(Oc1ccc(-c2ccccc2)cc1)C1C2CCCCC21 (stereo not given),inactive
13,Cc1ccccc1OCCCCn1c(CO)nc2ccccc21,inactive
14,CCc1ccc(NC(=O)CN2CCc3ccccc3C2)cc1,inactive
15,O=C(Nc1ccc2c(c1)CCC2)c1ccc(Cl)nc1,"inconclusive: 15.8 µM [activator, single point]"
16,CC(C)c1nnc(NC(=O)C2CCCN2C(=O)Nc2ccccc2F)s1 (stereo not given),inactive
17,COc1ccc(CCNC(=O)c2ccc(=O)[nH]n2)cc1OC,"inconclusive: 35.5 µM [activator, single point]"
18,O=C(Nc1ccc2c(c1)OCO2)c1cccc(F)c1,"inconclusive: 6.31 µM [activator, single point]"
19,Cc1nnc(NC(=O)C2CCCO2)s1 (stereo not given),"inconclusive: 12.6 µM [activator, single point]"
20,C#CCSc1nnc(-c2c[nH]c3ccccc23)n1C,"inconclusive: 3.55 µM [activator, single point]"
21,CCCCOc1c(Cl)cc(CNC(C)(C)CO)cc1OCC,"inconclusive: 0.891 µM [activator, full curve, poor fit]"
22,COc1ccc(C(C(C(=O)c2cccs2)N2CCOCC2)N2CCOCC2)cc1OC (stereo not given),"inconclusive: 3.16 µM [activator, partial curve]"
23,O=C(COC(=O)C1CC(O)CN1S(=O)(=O)c1ccc(Cl)cc1)c1cccc(Cl)c1 (stereo not given),"inconclusive: 3.55 µM [activator, single point]"
24,CCOC(=O)c1cc2ccc3ccccc3c2s1,"inconclusive: 31.6 µM [activator, single point]"
25,N#CCSc1ccc(-c2nc3ccccc3[nH]2)cn1,"inconclusive: 15.8 µM [activator, single point]"

row,SMILES,Potency
1,Cc1ccc(C(=O)Oc2ccc(N3C(=O)CCC3=O)c(C)c2)cc1,inactive
2,CCOC(=O)c1ccc(OC(=O)CCCCCN=C(N)N)cc1,inactive
3,CCOc1ccc(NS(=O)(=O)c2cc(OC)ccc2OC)cc1,"inconclusive: 3.55 µM [activator, partial curve, poor fit]"
4,COC(=O)Cn1c(=O)cnc2ccccc21,inactive
5,C=CCNc1nc(N)c(C(=O)Nc2cc(C)on2)s1,active: 11.2 µM
6,COc1ccc(/C=N/Nc2nc3ccccc3o2)cc1OC,active: 6.31 µM
7,CCc1nnc(NC(=O)CSc2nc3c(cc2C#N)CCCC3)s1,active: 5.62 µM
8,CC1=CC(C)(C)N(C(=O)CSc2ncn[nH]2)c2ccccc21,"inconclusive: 20 µM [activator, partial curve, poor fit]"
9,COc1ccc(-n2nc([N+](=O)[O-])c(=NCCCN3CCCC3=O)n2O)cc1,inactive
10,Cc1ccc2nc(NC(=O)COC(=O)c3ccncc3)sc2c1,"inconclusive: 15.8 µM [activator, single point]"
11,CC(C)c1ccc(NC(=O)N2CCc3ccccc3C2)cc1,active: 12.6 µM
12,Fc1cc(Br)ccc1NC(=S)Nc1ccccc1,active: 17.8 µM
13,COc1ccc(OCCCC(=O)Nc2ccc3c(c2)OCCO3)cc1,"inconclusive: 1.26 µM [activator, full curve, poor fit]"
14,O=C(c1cccc(F)c1)N1CCC2(CCN(Cc3cc(C(F)(F)F)cc(C(F)(F)F)c3)CC2)CC1,inactive
15,c1ccc(Cn2nnnc2C(c2cccnc2)N2CCN(C3CCCCC3)CC2)cc1 (stereo not given),inactive
16,Cc1c(NC(=O)COC(=O)c2cc(-c3ccc(-c4ccccc4)cc3)nc3ccccc23)c(=O)n(-c2ccccc2)n1C,active: 0.631 µM
17,Cc1cc(C(=O)Nc2cccc(O)c2)co1,"inconclusive: 7.94 µM [activator, partial curve, poor fit]"
18,CC(=Nc1ccc(C)c(C)c1)C1=C(O)CSC1=O,"inconclusive: 15.8 µM [activator, single point]"
19,CCOC(=O)c1c(C)[nH]c(C(=O)OC/C(O)=C(\C#N)c2nc3ccccc3[nH]2)c1C,"inconclusive: 0.0032 µM [activator, full curve, poor fit]"
20,CCCC(=O)Nc1ccc(-c2nc3cc(C)c(C)cc3o2)c(O)c1,active: 35.5 µM
21,O=C(CN1C(=O)/C(=C/c2c(F)cccc2Cl)Oc2ccccc21)NCc1ccco1,"inconclusive: 35.5 µM [activator, single point]"
22,O=C(CSCc1ccccc1F)NCc1ccccc1,"inconclusive: 14.1 µM [activator, single point]"
23,Cc1cc(C(=O)N/N=C/c2cccn2C)n[nH]1,"inconclusive: 15.8 µM [activator, partial curve, poor fit]"
24,CC(=O)c1ccc(OC(=O)c2cc3ccccc3oc2=O)cc1,inactive
25,Cc1cc(NC(=O)C2CC(c3cccc(Br)c3)=NO2)no1 (stereo not given),"inconclusive: 11.2 µM [activator, partial curve, poor fit]"

# Reference: PubChem BioAssay AID1458 (National Center for Advancing Translational Sciences (NCATS), 2008)
